# Results reported in the supplement of paper PMC8728848.
# Some of the results follow.
# What was measured:
# Assay in all cases: glycan array binding signal (z-score within array); higher = stronger binding
# Conditions in all cases: glycan notation: IUPAC condensed, linker removed
# GalNAc(b1-4)GlcNAc = target: GalNAc(b1-4)GlcNAc
# Method in brief: (§1)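 Columns mapping to the same glycan were averaged after glycan names were converted to IUPAC-condensed notation. The data come from 3228 arrays in the Consortium for Functional Glycomics database, limited to those with an available protein sequence. Binding is reported as a within-array Z-score averaged across arrays of one protein sequence and across linkers.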
# [1] = target: GalNAc(b1-4)GlcNAc(b1-2)Man
# Method in brief: as §1
# [2] = target: GalNAc(b1-4)GlcNAc(b1-2)Man(a1-3)[GalNAc(b1-4)GlcNAc(b1-2)Man(a1-6)]Man(b1-4)GlcNAc(b1-4)GlcNAc
# Method in brief: as §1
# [3] = target: GalNAc(b1-4)GlcNAc(b1-3)GalNAc(b1-4)GlcNAc
# Method in brief: as §1
# GalNAc(b1-4)GlcNAc6S = target: GalNAc(b1-4)GlcNAc6S
# Method in brief: as §1
# GalNAc(b1-6)GalNAc = target: GalNAc(b1-6)GalNAc
# Method in brief: as §1
# GalNAc3S(b1-4)GlcNAc = target: GalNAc3S(b1-4)GlcNAc
# Method in brief: as §1
# GalNAc3S(b1-4)GlcNAc3S = target: GalNAc3S(b1-4)GlcNAc3S
# Method in brief: as §1
# [4] = target: GalNAc3S(b1-4)[Fuc(a1-3)]GlcNAc
# Method in brief: as §1
# GalNAc4S6S(b1-4)GlcNAc = target: GalNAc4S6S(b1-4)GlcNAc
# Method in brief: as §1
# GalNAc6S(b1-4)GlcNAc = target: GalNAc6S(b1-4)GlcNAc
# Method in brief: as §1
# Glc(a1-4)Glc = target: Glc(a1-4)Glc
# Method in brief: as §1
# [5] = target: Glc(a1-4)Glc(a1-4)Glc(a1-4)Glc
# Method in brief: as §1
# Glc(a1-6)Glc(a1-6)Glc = target: Glc(a1-6)Glc(a1-6)Glc
# Method in brief: as §1
# [6] = target: Glc(a1-6)Glc(a1-6)Glc(a1-6)Glc
# Method in brief: as §1
# Glc(b1-4)Glc = target: Glc(b1-4)Glc
# Method in brief: as §1
# Glc(b1-6)Glc = target: Glc(b1-6)Glc
# Method in brief: as §1
# GlcA(b1-3)Gal = target: GlcA(b1-3)Gal
# Method in brief: as §1
# GlcA(b1-3)GlcNAc = target: GlcA(b1-3)GlcNAc
# Method in brief: as §1
# GlcA(b1-6)Gal = target: GlcA(b1-6)Gal
# Method in brief: as §1
# [7] = target: GlcA3S(b1-3)Gal(b1-4)GlcNAc(b1-2)Man
# Method in brief: as §1
# [8] = target: GlcA3S(b1-3)Gal(b1-4)GlcNAc(b1-3)Gal(b1-4)Glc
# Method in brief: as §1
# [9] = target: GlcNAc(a1-3)Gal(b1-4)GlcNAc
# Method in brief: as §1
# [10] = target: GlcNAc(a1-4)Gal(b1-3)GlcNAc
# Method in brief: as §1
# [11] = target: GlcNAc(a1-4)Gal(b1-4)GalNAc
# Method in brief: as §1
# [12] = target: GlcNAc(a1-4)Gal(b1-4)GlcNAc
# Method in brief: as §1
# [13] = target: GlcNAc(a1-4)Gal(b1-4)GlcNAc(b1-3)Gal(b1-4)Glc
# Method in brief: as §1
# [14] = target: GlcNAc(a1-4)Gal(b1-4)GlcNAc(b1-3)Gal(b1-4)GlcNAc
# Method in brief: as §1
# [15] = target: GlcNAc(a1-4)Gal(b1-4)GlcNAc(b1-3)Gal(b1-4)GlcNAc(b1-3)Gal(b1-4)GlcNAc
# Method in brief: as §1
# [16] = target: GlcNAc(a1-4)Gal(b1-4)GlcNAc(b1-3)Gal(b1-4)[Fuc(a1-3)]GlcNAc(b1-3)Gal(b1-4)[Fuc(a1-3)]GlcNAc
# Method in brief: as §1
# [17] = target: GlcNAc(a1-6)Gal(b1-4)GlcNAc
# Method in brief: as §1
# [18] = target: GlcNAc(b1-2)Gal(b1-3)GalNAc
# Method in brief: as §1
# [19] = target: GlcNAc(b1-2)Man(a1-3)[GlcNAc(b1-2)Man(a1-6)]Man(b1-4)GlcNAc(b1-4)GlcNAc
# Method in brief: as §1
# [20] = target: GlcNAc(b1-2)Man(a1-3)[GlcNAc(b1-2)Man(a1-6)]Man(b1-4)GlcNAc(b1-4)[Fuc(a1-6)]GlcNAc
# Method in brief: as §1
# [21] = target: GlcNAc(b1-2)Man(a1-3)[GlcNAc(b1-4)][GlcNAc(b1-2)Man(a1-6)]Man(b1-4)GlcNAc(b1-4)GlcNAc
# Method in brief: as §1
# [22] = target: GlcNAc(b1-2)Man(a1-3)[GlcNAc(b1-4)][GlcNAc(b1-2)Man(a1-6)]Man(b1-4)GlcNAc(b1-4)[Fuc(a1-6)]GlcNAc
# Method in brief: as §1
# [23] = target: GlcNAc(b1-2)[GlcNAc(b1-4)]Man(a1-3)[GlcNAc(b1-2)Man(a1-6)]Man(b1-4)GlcNAc(b1-4)GlcNAc
# Method in brief: as §1
# [24] = target: GlcNAc(b1-2)[GlcNAc(b1-4)]Man(a1-3)[GlcNAc(b1-4)][GlcNAc(b1-2)Man(a1-6)]Man(b1-4)GlcNAc(b1-4)GlcNAc
# Method in brief: as §1
# [25] = target: GlcNAc(b1-2)[GlcNAc(b1-4)]Man(a1-3)[GlcNAc(b1-4)][GlcNAc(b1-2)[GlcNAc(b1-6)]Man(a1-6)]Man(b1-4)GlcNAc(b1-4)GlcNAc
# Method in brief: as §1
# [26] = target: GlcNAc(b1-2)[GlcNAc(b1-4)]Man(a1-3)[GlcNAc(b1-4)][GlcNAc(b1-2)[GlcNAc(b1-6)]Man(a1-6)]Man(b1-4)GlcNAc(b1-4)[Fuc(a1-6)]GlcNAc
# Method in brief: as §1
# [27] = target: GlcNAc(b1-2)[GlcNAc(b1-6)]Man(a1-6)[GlcNAc(b1-2)Man(a1-3)]Man(b1-4)GlcNAc(b1-4)GlcNAc
# Method in brief: as §1
# [28] = target: GlcNAc(b1-2)[GlcNAc(b1-6)]Man(a1-6)[GlcNAc(b1-2)Man(a1-3)]Man(b1-4)GlcNAc(b1-4)[Fuc(a1-6)]GlcNAc
# Method in brief: as §1
# [29] = target: GlcNAc(b1-2)[GlcNAc(b1-6)]Man(a1-6)[GlcNAc(b1-4)][GlcNAc(b1-2)Man(a1-3)]Man(b1-4)GlcNAc(b1-4)GlcNAc
# Method in brief: as §1
# GlcNAc(b1-3)Fuc = target: GlcNAc(b1-3)Fuc
# Method in brief: as §1
# GlcNAc(b1-3)Gal = target: GlcNAc(b1-3)Gal
# Method in brief: as §1
binder,measurement,setting,value
"LBL-152 (Laetiporus bicolor), B0D650 (protein) MSNEYNPPLGIAFRLCGLASDRVLFSRVSPSPEVFHHPKSEVYPDQWFVAIPGSGQNAGCYAIKSKNTGKVLFSRMSPDPRVGHIDGDGKYPDNWFKFEAGSGKYAGYFRLRAVASDTVLVSRTSTGTDTQVINYPATSAKYDDQYFTILFDHHHHHH",glycan array binding signal (z-score),GalNAc(b1-4)GlcNAc,-0.134
same,glycan array binding signal (z-score),[1],-0.149
same,glycan array binding signal (z-score),[2],-0.147
same,glycan array binding signal (z-score),[3],-0.14
same,glycan array binding signal (z-score),GalNAc(b1-4)GlcNAc6S,-0.154
same,glycan array binding signal (z-score),GalNAc(b1-6)GalNAc,-0.155
same,glycan array binding signal (z-score),GalNAc3S(b1-4)GlcNAc,-0.157
same,glycan array binding signal (z-score),GalNAc3S(b1-4)GlcNAc3S,-0.163
same,glycan array binding signal (z-score),[4],-0.15
same,glycan array binding signal (z-score),GalNAc4S6S(b1-4)GlcNAc,-0.15
same,glycan array binding signal (z-score),GalNAc6S(b1-4)GlcNAc,-0.16
same,glycan array binding signal (z-score),Glc(a1-4)Glc,-0.157
same,glycan array binding signal (z-score),[5],-0.155
same,glycan array binding signal (z-score),Glc(a1-6)Glc(a1-6)Glc,-0.156
same,glycan array binding signal (z-score),[6],-0.16
same,glycan array binding signal (z-score),Glc(b1-4)Glc,-0.149
same,glycan array binding signal (z-score),Glc(b1-6)Glc,-0.16
same,glycan array binding signal (z-score),GlcA(b1-3)Gal,-0.155
same,glycan array binding signal (z-score),GlcA(b1-3)GlcNAc,-0.15
same,glycan array binding signal (z-score),GlcA(b1-6)Gal,-0.152
same,glycan array binding signal (z-score),[7],-0.147
same,glycan array binding signal (z-score),[8],-0.157
same,glycan array binding signal (z-score),[9],-0.147
same,glycan array binding signal (z-score),[10],-0.146
same,glycan array binding signal (z-score),[11],-0.147
same,glycan array binding signal (z-score),[12],-0.157
same,glycan array binding signal (z-score),[13],-0.155
same,glycan array binding signal (z-score),[14],-0.157
same,glycan array binding signal (z-score),[15],-0.153
same,glycan array binding signal (z-score),[16],-0.147
same,glycan array binding signal (z-score),[17],-0.156
same,glycan array binding signal (z-score),[18],-0.152
same,glycan array binding signal (z-score),[19],-0.156
same,glycan array binding signal (z-score),[20],-0.16
same,glycan array binding signal (z-score),[21],-0.153
same,glycan array binding signal (z-score),[22],-0.147
same,glycan array binding signal (z-score),[23],-0.159
same,glycan array binding signal (z-score),[24],-0.158
same,glycan array binding signal (z-score),[25],-0.153
same,glycan array binding signal (z-score),[26],-0.149
same,glycan array binding signal (z-score),[27],-0.153
same,glycan array binding signal (z-score),[28],-0.147
same,glycan array binding signal (z-score),[29],-0.156
same,glycan array binding signal (z-score),GlcNAc(b1-3)Fuc,-0.143
same,glycan array binding signal (z-score),GlcNAc(b1-3)Gal,-0.16
